Measured values reported in PubChem BioAssay AID504333 (National Center for Advancing Translational Sciences (NCATS), 2011).
About 16,000 (4.4%) of roughly 360,000 compounds were called active. This list was built around the results that the source calls inconclusive (neither active nor inactive); the mix of calls is not that of the screen. Calls come from the whole dose curve; as a rule, active = well fitted inhibition curve with a large enough effect; inconclusive = small, poorly fitted or top-dose-only effect; inactive = no such curve, though single readings can be large or run the other way. Potencies beside an inconclusive call are fits to weak or partial responses and may not hold up.

biological target: Bromodomain adjacent to zinc finger domain protein 2B (Homo sapiens) (UniProt Q9UIF8); assay: qHTS Assay for Inhibitors of BAZ2B; conditions: AlphaScreen BAZ2B-H3K14Ac peptide displacement; series mostly up to 114 µM; note: nearly all actives have a fitted effect of over 60% in size
UniProt Q9UIF8, sequence (Q9UIF8 whole entry, looked up, the tested form may be a part): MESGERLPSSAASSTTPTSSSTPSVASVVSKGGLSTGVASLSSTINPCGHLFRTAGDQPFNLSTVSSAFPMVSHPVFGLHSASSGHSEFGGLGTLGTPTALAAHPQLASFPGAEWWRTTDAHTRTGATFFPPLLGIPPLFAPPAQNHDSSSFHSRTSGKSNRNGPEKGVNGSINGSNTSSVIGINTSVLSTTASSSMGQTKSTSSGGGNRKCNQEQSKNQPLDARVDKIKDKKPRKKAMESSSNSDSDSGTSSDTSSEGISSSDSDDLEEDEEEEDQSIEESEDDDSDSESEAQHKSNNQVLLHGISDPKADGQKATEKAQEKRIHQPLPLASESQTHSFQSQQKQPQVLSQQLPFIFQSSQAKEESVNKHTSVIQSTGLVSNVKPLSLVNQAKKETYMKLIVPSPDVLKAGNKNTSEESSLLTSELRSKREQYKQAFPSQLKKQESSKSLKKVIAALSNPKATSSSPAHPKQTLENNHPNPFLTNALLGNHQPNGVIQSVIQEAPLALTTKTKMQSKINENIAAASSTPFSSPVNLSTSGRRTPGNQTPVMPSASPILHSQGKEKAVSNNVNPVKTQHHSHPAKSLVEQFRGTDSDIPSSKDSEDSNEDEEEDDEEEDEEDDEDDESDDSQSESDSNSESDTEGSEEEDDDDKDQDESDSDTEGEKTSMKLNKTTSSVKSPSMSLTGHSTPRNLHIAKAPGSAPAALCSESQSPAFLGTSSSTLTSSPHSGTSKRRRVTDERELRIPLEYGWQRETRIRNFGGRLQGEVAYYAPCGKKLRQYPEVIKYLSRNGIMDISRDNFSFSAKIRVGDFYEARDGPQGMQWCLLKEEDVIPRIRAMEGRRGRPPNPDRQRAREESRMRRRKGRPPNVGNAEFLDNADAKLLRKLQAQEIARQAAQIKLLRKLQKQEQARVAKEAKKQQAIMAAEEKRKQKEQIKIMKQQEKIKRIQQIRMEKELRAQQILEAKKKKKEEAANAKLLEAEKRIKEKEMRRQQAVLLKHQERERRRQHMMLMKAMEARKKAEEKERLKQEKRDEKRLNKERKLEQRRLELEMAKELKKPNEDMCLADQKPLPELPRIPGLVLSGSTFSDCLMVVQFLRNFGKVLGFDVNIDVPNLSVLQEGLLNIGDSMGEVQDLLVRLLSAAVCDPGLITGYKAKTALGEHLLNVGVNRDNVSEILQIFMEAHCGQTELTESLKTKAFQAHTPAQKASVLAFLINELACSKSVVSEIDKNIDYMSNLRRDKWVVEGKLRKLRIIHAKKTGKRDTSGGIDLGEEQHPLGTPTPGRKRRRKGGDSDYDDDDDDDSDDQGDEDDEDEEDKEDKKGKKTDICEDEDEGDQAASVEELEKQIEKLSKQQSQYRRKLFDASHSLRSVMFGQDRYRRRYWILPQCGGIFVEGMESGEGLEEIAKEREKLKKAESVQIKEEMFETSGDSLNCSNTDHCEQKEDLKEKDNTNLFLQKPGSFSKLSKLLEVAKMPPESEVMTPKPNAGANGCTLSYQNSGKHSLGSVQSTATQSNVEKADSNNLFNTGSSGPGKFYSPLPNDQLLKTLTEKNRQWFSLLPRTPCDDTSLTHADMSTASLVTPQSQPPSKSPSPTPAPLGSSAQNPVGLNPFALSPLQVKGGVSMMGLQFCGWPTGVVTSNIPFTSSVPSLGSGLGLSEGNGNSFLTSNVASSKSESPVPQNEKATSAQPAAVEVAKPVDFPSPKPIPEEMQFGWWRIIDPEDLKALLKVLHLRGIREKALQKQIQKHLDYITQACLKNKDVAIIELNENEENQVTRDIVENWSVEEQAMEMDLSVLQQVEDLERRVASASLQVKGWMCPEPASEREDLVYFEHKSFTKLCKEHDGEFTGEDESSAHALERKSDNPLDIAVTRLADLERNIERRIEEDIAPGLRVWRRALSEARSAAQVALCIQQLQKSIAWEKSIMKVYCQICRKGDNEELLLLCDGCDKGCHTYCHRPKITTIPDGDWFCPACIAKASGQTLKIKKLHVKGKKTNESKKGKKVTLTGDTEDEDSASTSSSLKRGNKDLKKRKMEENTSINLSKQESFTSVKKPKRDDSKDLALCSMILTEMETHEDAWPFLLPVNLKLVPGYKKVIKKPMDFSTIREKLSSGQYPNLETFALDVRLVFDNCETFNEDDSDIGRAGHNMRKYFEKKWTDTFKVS
Summary of the method: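 BAZ2B 50 nM plus b-H3(5-23)K14Ac 50 nM, PBS pH 7.4/0.01% Tween-20, 30 min RT; compound added (max 110 uM), 30 min RT; streptavidin donor/Ni-chelate acceptor beads 10 ug/mL final, 20 min dark; AlphaScreen read.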
Potency is the fitted concentration of half-maximal effect; tags give direction and shape of the fitted curve.

SMILES | Potency
CCN(C(=O)COC(=O)c1oc2ccccc2c1C)c1c(N)n(Cc2ccccc2)c(=O)[nH]c1=O | inactive
COc1ccc(OC)c(NC(=O)Cn2cc(C(=O)c3ccco3)c3ccccc32)c1 | inconclusive: 44.7 µM [inhibitor, partial curve]
CCCN(CCC)CCCNC(=O)Cn1cnc2onc(-c3ccc(F)cc3)c2c1=O | inactive
O=C1CSC(c2cccnc2)N1CC1CC1 (stereo unspecified) | inconclusive: 89.1 µM [inhibitor, single point]
O=C(Nc1ccc(Cc2ccncc2)cc1)c1ccc(N2CCOCC2)c([N+](=O)[O-])c1 | inconclusive: 31.6 µM [inhibitor, full curve]
COc1ccc(OCC#CCNC(C)(C)C)cc1 | active: 56.2 µM
CCOC(=O)CCCCC(=O)c1[nH]c(=O)[nH]c1CSc1nc(C)cc(C)n1 | inconclusive: 89.1 µM [inhibitor, single point]
NC(=O)C1CCN(c2nc(-c3cccc(N)c3)cs2)CC1 | inconclusive: 89.1 µM [inhibitor, single point]
CNC(=O)N1CCN(C(=O)NC)CC1 | inactive
COc1ccccc1NC(=O)c1ccc([N+](=O)[O-])cc1[N+](=O)[O-] | inconclusive: 79.4 µM [inhibitor, partial curve]
COc1cccc(C(=O)NC(=S)Nc2ccc(Cl)c(C(=O)O)c2)c1 | inconclusive: 79.4 µM [inhibitor, single point]
Cc1ccc(S(=O)(=O)N2CCC(C(=O)Nc3ccccc3N3CCCC3)CC2)cc1C | inconclusive: 79.4 µM [inhibitor, single point]
COc1cc(-c2noc(C3CC(=O)N(c4ccc5c(c4)OCCO5)C3)n2)cc(OC)c1OC (stereo unspecified) | inconclusive: 79.4 µM [inhibitor, partial curve]
COc1cc(O)c(C(CCN2CCCCC2)c2ccc(N(C)C)cc2)c(OC)c1 (stereo unspecified) | inconclusive: 50.1 µM [inhibitor, partial curve]
CC(=O)C1=C(O)C(=O)N(CCCn2ccnc2)C1c1ccc(Cl)cc1 (stereo unspecified) | inconclusive: 79.4 µM [inhibitor, single point]
COc1ccc(N=C2C(=O)Nc3ccc(C)c(Br)c32)cc1 | active: 6.31 µM
Cc1ccc(S(=O)(=O)c2nc(NCCCn3ccnc3)sc2Cl)cc1 | inactive
COc1ccc(Nc2cc(C)nc(-n3nc(C)cc3C)n2)cc1Cl | active: 6.31 µM
CSCC[C@H](NC(=O)Cc1c(C)c2c(cc(C)c3c(C)c(C)oc32)oc1=O)C(=O)O | inactive
Cc1nc2nc(NC(=O)c3ccco3)[nH]n2c(=O)c1C | inactive
CN(NC1OC(=O)c2ccccc21)c1c([N+](=O)[O-])cc(C(F)(F)F)cc1[N+](=O)[O-] (stereo unspecified) | inconclusive: 70.8 µM [inhibitor, single point]
Cc1cc(C)cc(NC(=S)NC2CC3CCCC(C2)N3C2CC2)c1 (stereo unspecified) | inconclusive: 79.4 µM [inhibitor, single point]
O=C(C[n+]1ccccc1)N/N=C/c1ccccc1Cl | inconclusive: 89.1 µM [inhibitor, single point]

SMILES | Potency
COc1cc([N+](=O)[O-])ccc1NC(=O)NNC(=O)CCc1ccccc1 | inactive
O=C1OC(c2ccccc2)=N/C1=C\C=C\c1ccco1 | inconclusive: 12.6 µM [inhibitor, partial curve]
O=[N+]([O-])c1ccc(N2CCN(Cc3ccccc3)CC2)s1 | inconclusive: 31.6 µM [inhibitor, full curve]
COc1ccc(C(=O)Cc2cc(OC)c(OC)cc2C(=O)c2ccccc2F)cc1OC | inconclusive: 79.4 µM [inhibitor, single point]
Cc1ccc(-c2cn3c(n2)sc2cc(C(=O)NCCCc4ccccc4)ccc23)cc1 | inactive
COc1ccc(/C=N/OCc2nc3c4c(ncn3n2)Oc2ccc3ccccc3c2C4c2ccccc2)cc1 (stereo unspecified) | inconclusive: 56.2 µM [inhibitor, partial curve]
Cc1nc2ccccc2nc1CN1CCC(CO)(CC2CCCCO2)CC1 (stereo unspecified) | inactive
Cc1ccc(C2=Nc3ccccc3NC(c3ccncc3)=N2)cc1 | inconclusive: 35.5 µM [inhibitor, partial curve]
O=c1c2cc(Cl)ccc2nc(-c2ccc(Cl)c(Cl)c2)n1O | inconclusive: 89.1 µM [inhibitor, single point]
COc1ccc([N+](=O)[O-])cc1NS(=O)(=O)c1ccc(C)cc1 | inactive
Cc1cccc(Nc2nc(N)c([N+](=O)[O-])c(N3CC(C)CC(C)C3)n2)c1 (stereo unspecified) | inconclusive: 31.6 µM [inhibitor, full curve]
COc1ccccc1N1CCN(/N=C/c2cccc(OC)c2OC)CC1 | active: 35.5 µM
CC12CCC(C(=O)N(CSC(=S)N/N=C\c3ccccc3O)C1=O)C2(C)C (stereo unspecified) | active: 2.82 µM
COc1ccc(Cl)cc1Nc1nc(-c2sc(NC(=O)c3ccccc3)nc2C)cs1 | active: 56.2 µM
O=c1c2ccccc2nnn1CSc1nnc(COc2ccc(Cl)cc2)n1Cc1ccco1 | inconclusive: 89.1 µM [inhibitor, single point]
Cc1cc2c(NC(=O)Nc3ccc(C(C)(C)C)cc3)cccc2nn1 | inconclusive: 44.7 µM [inhibitor, partial curve]
O=C(CCS(=O)(=O)Cc1ccccc1)Nc1nncs1 | inactive
Cc1ccc(CN2CCSc3ccc(C(=O)NCCCN4CCOCC4)cc32)cc1 | inconclusive: 35.5 µM [inhibitor, partial curve]
CC(=O)c1cc(-c2ccc(F)cc2)n(CCC(=O)Nc2nc3c(C)cccc3s2)c1C | inactive
Cc1cc(OCCN2CCOCC2)ccc1C(C)C | active: 50.1 µM
O=S(=O)(c1ccccc1)N1CCC(c2ccncc2)CC1 | inactive
COC(=O)C1=CO[C@@H](C)[C@H]2CN3CCc4c([nH]c5ccccc45)[C@@H]3C[C@H]12 | inconclusive: 50.1 µM [inhibitor, partial curve]
COc1ccc(S(=O)(=O)n2ccc(-c3ccc(OCCN(C)c4ccccn4)cc3)n2)cc1 | inconclusive: 89.1 µM [inhibitor, single point]
